Experimental data reported in article PMC7578299, “The antiviral effects of baloxavir marboxil against influenza A virus infection in ferrets” (Influenza and Other Respiratory Viruses, 2020).

Columns and labels:
[1] = system: Influenza A virus A/Kadoma/3/2006 (H1N1); experiment: Experiment 2: infected ferrets, treatment starting at Day 2 p.i. (virus titer in nasal washes, body temperature); settings: treatment from Day 2 p.i.; BXM 10 mg/kg twice daily 1 day, OSP 5 mg/kg twice daily 2 days
[2] = system: Influenza A virus A/Kadoma/3/2006 (H1N1); experiment: Experiment 1: infected ferrets, treatment starting at Day 1 p.i. (virus titer in nasal washes, body temperature); settings: for body temperature changes from baseline over time (in words): from 8 hours up to Day 3 p.i., BXM 10 and 30 mg/kg twice daily 1 day, OSP 5 mg/kg twice daily 2 days, from Day 1 p.i.

| Structure (SMILES) | virus titer in nasal washes on Day 3 p.i. (in words) [1] | virus titer in nasal washes ([2]; Day 2 p.i., BXM 10 mg/kg twice daily for 1 day from Day 1 p.i., undetectable level) | body temperature changes from baseline over time (in words) [2] |
| --- | --- | --- | --- |
| COC(=O)OCOc1c2n(ccc1=O)N([C@@H]1c3ccccc3SCc3c1ccc(F)c3F)[C@@H]1COCCN1C2=O [BXM, Baloxavir marboxil] | statistically significant reduction in virus titer by Day 3 compared with vehicle or OSP | < 0.5 log10 TCID50/mL | significantly greater with BXM at doses of 10 and 30 mg/kg than vehicle and OSP 5 mg/kg |
| CCOC(=O)C1=C[C@@H](OC(CC)CC)[C@H](NC(C)=O)[C@@H](N)C1 [OSP, oseltamivir phosphate] | reduced virus titers on Day 3 p.i., but not significantly compared with vehicle | – | no effect on body temperature was observed |
